# Laboratory results reported in PubChem BioAssay AID485344 (National Center for Advancing Translational Sciences (NCATS), 2010).
# Among all 340,000 compounds or so, about 6,900 (2%) were called active. Cut-off read from the data, not from the text of the source: active = inhibition above about 30%; inactive = below that, where a call was filed. Only a part is listed here, and it is no random draw. Where no call is shown, the source filed none.
# Target: D(2) dopamine receptor (Homo sapiens) (UniProt P14416)
# Chain of UniProt P14416 (P14416 whole entry, looked up): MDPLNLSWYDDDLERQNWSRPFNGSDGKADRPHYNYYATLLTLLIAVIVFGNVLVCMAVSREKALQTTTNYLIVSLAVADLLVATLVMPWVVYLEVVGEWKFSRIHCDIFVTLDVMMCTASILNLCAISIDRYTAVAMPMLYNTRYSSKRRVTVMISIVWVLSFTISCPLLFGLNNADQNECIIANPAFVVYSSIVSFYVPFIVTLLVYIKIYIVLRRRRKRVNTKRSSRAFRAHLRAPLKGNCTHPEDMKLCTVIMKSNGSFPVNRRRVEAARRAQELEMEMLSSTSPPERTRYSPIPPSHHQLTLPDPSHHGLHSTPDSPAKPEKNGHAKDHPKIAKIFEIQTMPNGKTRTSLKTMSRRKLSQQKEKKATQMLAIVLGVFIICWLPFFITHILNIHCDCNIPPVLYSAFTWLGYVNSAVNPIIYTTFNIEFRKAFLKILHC
# Assay: HTS Assay for Allosteric Antagonists of the Human D2 Dopamine Receptor: Primary Screen for Antagonists; note: 0% is about no effect
# Conditions: HEK293 TREx D2 cells, calcium flux, dopamine EC80; at 10 µM; stronger effect = higher value
# Method in brief: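 Cells plated overnight at 30 C with tetracycline; no-wash calcium dye, 30–90 min RT; 10 s baseline; compound pinned; 180 s read; EC80 dopamine added; another 180 s read.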
row,Compound,inhibition
1,Cc1ccc2c(c1)nc(SCC(O)c1ccc(Br)cc1)n2C (centres undefined),-16.3%
2,COc1ccc(Cl)cc1S(=O)(=O)Nc1cccc(-c2ccc(N3CCOCC3)nn2)c1,-20.9%
3,Cn1c(=O)c2sccc2n2c(CCC(=O)NCc3ccccc3)nnc12,-4.99%
4,COc1ccc(N2CCN(Cc3nc4c(c(=O)[nH]c(=O)n4C)n3Cc3ccccc3)CC2)cc1,7.89%
5,Cc1ccc(C)c(CSc2nc3ccncc3n2Cc2nc(-c3ccccc3Cl)oc2C)c1,12.5%
6,Cc1ccc(C(C(=O)NC2CCCCC2)N(CCCN2CCOCC2)C(=O)c2snc(C(N)=O)c2N)cc1 (centres undefined),active: 49.2%
7,CCc1nn(CC(=O)NC2CC2)c(=O)c2cc3ccccc3n12,7.05%
8,O=C(Cn1c(=O)nc(-c2ccccc2)c2cc(Cl)ccc21)NCCCc1ccccc1,-4.14%
9,COc1cccc(CNC(=O)c2c3c(nc4ccccc24)C(=O)N(C2CCCCC2)C3)c1,-1.01%
10,Cn1cc(C(=O)NCc2ccccc2)c(=O)c2cc(S(=O)(=O)N3CCCCCC3)ccc21,17.3%
11,Cc1cccc(C)c1NC(=O)CN(C)S(=O)(=O)c1ccc2c(c1)n(C)c(=O)c(=O)n2C,-13.5%
12,CCSc1nc(=O)c2c(n1C)NC(=O)CC2c1ccc(O)cc1OC (centres undefined),25.6%
13,CCc1ccc(OCC(=O)NCC(c2ccc(OC)cc2)N2CCOCC2)cc1 (centres undefined),6.33%
14,Nc1cc(S(=O)(=O)N2CCCCC2)ccc1N1CCOCC1,active: 31.5%
15,COc1ccc(-n2c(=O)c3sc4ccccc4c3n(Cc3ccccc3)c2=O)cc1,9.54%
16,Cc1ccc2c(CNC3CCC(C)CC3)c(C(=O)O)n(Cc3cccc(F)c3)c2c1 (centres undefined),0.761%
17,Cc1cccc(C(=O)N(Cc2nc(-c3ccc(Cl)cc3)no2)C(C)C)c1,-13.5%
18,CC(=O)c1cccc(NC(=O)Cn2c(C)c3cnn(-c4ccccc4)c(=O)c3c2C)c1,-6.56%
19,CC1CCN(c2nc3ccc(C(=O)NCc4ccc(Cl)cc4)cc3s2)CC1,0.341%
20,COc1cc2c(cc1OC)C(c1ccc(F)cc1)N(c1ccc(F)cc1)C(=O)C2 (centres undefined),-4.19%
21,COc1cc(NC(=O)c2cc3nc(-c4ccccc4)cc(-c4ccccc4)n3n2)c(OC)cc1Cl,9.04%
22,COc1ccc(C2CC(=O)N(CC(=O)Nc3ccc(C(F)(F)F)cc3)c3ccccc3S2)cc1 (centres undefined),-7.95%
23,COC(=O)c1ccc(OC)c(Cn2c(=O)n(-c3ccc(C)cc3)c(=O)c3c2cnn3C)c1,-2.48%
24,COc1cccc(NC(=O)C2CCN(S(=O)(=O)c3cc(-c4noc(C)n4)ccc3C)CC2)c1,18.1%

row,Compound,inhibition
1,COc1cc(-c2noc(-c3cc(C)[nH]n3)n2)cc(OC)c1OC,-0.34%
2,CCOc1ccc(NC(=O)c2cn3c4c(ccc(Cl)c4c2=O)OC(C)C3)cc1 (centres undefined),-0.241%
3,CCn1cc(C(=O)N2CCN(c3ccccc3)CC2)c(=O)c2cc(S(=O)(=O)N3CCC(C)CC3)ccc21,0.239%
4,COc1ccc(C2CC(=O)c3c([nH]c(C(=O)OCCOc4ccccc4)c3C)C2)cc1OC (centres undefined),15.1%
5,COc1cccc(CNC(=O)c2cccn2-c2nnc(N3CCCC3)s2)c1,-11.1%
6,Cc1ccc(-c2noc(C3CC(=O)N(c4ccc5c(c4)OCCO5)C3)n2)cc1 (centres undefined),11.6%
7,COc1ccc(CNC(=O)C2CCN(S(=O)(=O)c3cn(C)cn3)CC2)cc1,-17.6%
8,COc1ccc(NC(=O)N(Cc2ccco2)C2CCN(C(C)=O)CC2)c(OC)c1,13.7%
9,COc1ccc2c(C)c(CCC(=O)NCc3ccc(OC)c(OC)c3)c(=O)oc2c1,16.5%
10,Cc1cc(-c2nc3ccccc3s2)ccc1NC(=O)c1cc(Cl)ccc1Cl,-7.88%
11,COc1ccc(C(C)(C)C)cc1NC(=O)CCCn1c(=O)oc2ccccc21,active: 50.8%
12,COc1ccccc1/C=C/CN1CCC(Oc2cc(C(=O)NC3CC3)ccc2OC)CC1,active: 59.2%
13,CCc1ccc(N2C(=O)CS(=O)(=O)C23C(=O)N(Cc2ccccc2F)c2ccccc23)cc1 (centres undefined),0.916%
14,CCOc1cc(C2c3c(oc4ccccc4c3=O)C(=O)N2Cc2ccccc2Cl)ccc1O (centres undefined),22.9%
15,Cc1sc(NC(=O)COc2ccc(C(C)(C)C)cc2)c(C(=O)OC(C)C)c1C,3.62%
16,Cc1ccc(NC(=O)C(C)N2CCCC2)cc1Cl (centres undefined),active: 33.1%
17,CCOC(=O)c1scc(-c2ccc(C)cc2)c1S(=O)(=O)Nc1ccc(F)c(F)c1,3.64%
18,Cn1c(=O)n(CCCc2ccccc2)c(=O)c2c1nc1n2CCN1c1ccccc1,-25.2%
19,CCN(Cc1ccccc1)C(=O)CCS(=O)(=O)c1ccc2c(c1)oc(=O)n2C,-7.81%
20,COc1ccc2c(c1)c(=O)c(C(=O)c1ccc(Cl)cc1)cn2CC(=O)Nc1ccc2c(c1)OCO2,-21.4%
21,CC(C)(C)c1ccc(C(=O)Nc2ccc([N+](=O)[O-])cn2)cc1,active: 35.6%
22,Cc1c(Cl)cccc1NC(=O)NCCOCCn1c(=O)oc2ccccc21,-20.6%
23,CCOC(=O)c1ccc(NC(=O)CN2C(=O)CC(c3ccc(C)c(C)c3)=Nc3ccccc32)cc1,23%
24,Cc1cc(NC(=O)CN2C(=O)CSc3ccc(S(=O)(=O)N(C)C)cc32)ccc1Br,-1.9%

row,Compound,inhibition
1,CCOC(=O)c1c(NC(=O)c2nc(SC)ncc2Cl)sc(C)c1C,7.09%
2,CSc1ccc(CCNC(=O)c2ccc3c(c2)nc2n3CCOC2)cc1,-24.1%
3,Cc1ccc(NC(=O)c2ccc(F)c(S(=O)(=O)N3CCc4ccccc4C3)c2)cc1F,1.56%
4,CC(C)c1nnc(NC(=O)c2nc(S(=O)(=O)Cc3ccccc3)ncc2Cl)s1,-7.78%
5,COc1ccc(Cl)cc1NC(=O)CSc1cn(CC(=O)N2CCCC2)c2ccccc12,1.21%
6,COc1ccccc1CNC(=O)c1cc2c(=O)n(Cc3cccs3)ccc2nc1C,9.36%
7,COc1ccc(-n2ncc3c2ncn2nc(-c4ccc(Cl)cc4Cl)nc32)cc1,11.8%
8,COc1cccc(OC)c1Cn1nnc2c(=O)[nH]c(C3CCN(C(=O)c4ccccc4)CC3)nc21,5.97%
9,COc1ccc(CCNC(=O)CSCc2nc(-c3ccc(OC)c(OC)c3)oc2C)cc1OC,9.05%
10,COc1cc(OC)c(NC(=O)c2ccc3c(Cl)c4c(nc3c2)CCCC4)cc1Cl,-18.1%
11,CN1C(=O)c2ccccc2Sc2ccc(NC(=O)COc3ccc(Cl)cc3)cc21,16.8%
12,COCCNc1ccc(-c2nc(-c3cccc(C)c3)no2)cc1[N+](=O)[O-],24.6%
13,CC1CCCN(C(=O)Cn2c(=O)n(CC3CCC(C(=O)NC(C)C)CC3)c(=O)c3sccc32)C1 (centres undefined),2.14%
14,Cn1c(-n2cccc2)c(-c2c(-c3ccc(F)cc3)[nH]c3c2c(=O)[nH]c(=O)n3C)c(=O)[nH]c1=O,-6.45%
15,CCOc1ccc(NC(=O)Cn2c(=O)n(Cc3nc(-c4ccccc4)no3)c(=O)c3ccccc32)cc1,1.28%
16,COCc1c(C(=O)N2CCN(Cc3ccc4c(c3)OCO4)CC2)oc2ccccc12,active: 70.5%
17,CCOC(=O)C1=C(CS(=O)(=O)c2ccc(C)c(C)c2)NC(=O)NC1c1ccccc1OCC (centres undefined),-5.48%
18,O=C(Cn1c(=O)ccc2cc(S(=O)(=O)N3CCCC3)ccc21)NCc1ccc(F)cc1,-8.23%
19,COc1cccc(C2Nc3ccccc3-c3nnc(SCc4ccccc4)nc3O2)c1OC (centres undefined),20.2%
20,Cc1ccc(S(=O)(=O)c2nc(-c3ccccc3)oc2SCC(=O)NC2CCCCC2)cc1,-3.57%
21,COc1ccc(NC(=O)C(CC(C)C)NS(=O)(=O)c2ccc3c(c2)oc(=O)n3C)cc1Cl (centres undefined),-25.9%
22,CCOC(=O)N1CCC(NCCNC(=O)c2cccc(F)c2)CC1,active: 60.3%
23,CCc1ccc(-n2nc(CO)c(C(=O)NCCCCc3ccccc3)n2)cc1,-12%
24,O=C(NCc1ccc(Cl)cc1)c1cc(-c2ccc(F)cc2)on1,-16.9%

row,Compound,inhibition
1,O=C(COc1ccc(Br)cc1)Nc1cccc2cccnc12,-4.89%
2,COC(=O)CN1C(=O)C(C)(C)c2cc(S(=O)(=O)Nc3ccc(C(C)C)cc3)ccc21,3.57%
3,Cc1ccc(C)c(CN2C(=O)C(O)(c3c[nH]c4ccccc34)c3ccccc32)c1 (centres undefined),13.2%
4,CC(NC(=O)c1cc2ccccn2n1)c1ccccc1 (centres undefined),2.58%
5,CCc1cccc(NC(=O)c2coc(=O)c3ccccc23)c1,7.45%
6,COC(=O)c1ccc(Cl)cc1NC(=O)N1CCC(CN2CCC(C)CC2)CC1,5.6%
7,CC(CCc1ccccc1)NCC(O)c1ccc(O)c(C(N)=O)c1 (centres undefined),active: 67.2%
8,COc1cccc(NC(=O)c2oc3ccccc3c2NC(=O)Cc2cccc(C)c2)c1,-1.07%
9,COc1ccc(OCC(=O)N2CCN(C(=O)c3ccc(OC)cc3)CC2)cc1,9.12%
10,COc1ccc(CCNC(=O)CCCn2c(=O)c3cccn3c3ccc(F)cc32)cc1OC,-6.62%
11,CCOc1ccc(Nc2nc(Nc3ccc(OCC)cc3)nc(N3CCOCC3)n2)cc1,7.56%
12,COc1ccc(NC(=O)CC2C(=O)N(c3ccc(C)cc3)C(=O)N2C2CCCC2)cc1 (centres undefined),-3.04%
13,Cc1ccc(Cl)c(OCCCN(C)Cc2ccccc2)c1,active: 63.5%
14,COc1cc(N)c(Cl)cc1C(=O)OCC(=O)N1CCCC1,active: 31.6%
15,CCOc1ccc(C(=O)c2cn(CC(=O)Nc3ccc(C)c(C)c3)c3ccc(OCC)cc3c2=O)cc1,10.6%
16,COc1cc(O)c(C(CC(=O)N2CCCC(C)C2)c2ccc(N(C)C)cc2)c(OC)c1 (centres undefined),active: 31.3%
17,COc1ccc(N2CC(NC(=O)c3ccc(S(=O)(=O)N4CCOCC4)cc3)CC2=O)cc1 (centres undefined),5.82%
18,COc1cc2c(cc1OC)C(COc1ccc(C(C)C)cc1)N(C(=O)COc1ccccc1)CC2 (centres undefined),-3.71%
19,COc1ccccc1NC(=O)C1CCN(c2ncnc3c2nc2n3CCCCC2)CC1,0.733%
20,CCS(=O)(=O)c1nc(S(=O)(=O)c2ccc(C)cc2)c(NCc2ccccc2Cl)s1,0.318%
21,CCOC(=O)CSc1ncnc2c1c(-c1ccccc1)cn2-c1ccc(OC)cc1,-5.18%
22,CCOC(=O)Cn1cnc2c(cnn2-c2ccc(C)c(C)c2)c1=O,-3.97%
